Laboratory results published in paper PMC9120069.
Results are given in words; binding and its absence hold for the method and conditions named. Binding seen in cells or lysates may run through a third protein. Some results given as binding are weak or reduced against the parent protein; the word gives no strength. For part of these data: Sequences can lack the tags named with a protein.

Protein sequences, listed by entry. Tags and fused reporters are not part of them. Residues count along the entry.
UniProt Q8NE86, residues 51-351: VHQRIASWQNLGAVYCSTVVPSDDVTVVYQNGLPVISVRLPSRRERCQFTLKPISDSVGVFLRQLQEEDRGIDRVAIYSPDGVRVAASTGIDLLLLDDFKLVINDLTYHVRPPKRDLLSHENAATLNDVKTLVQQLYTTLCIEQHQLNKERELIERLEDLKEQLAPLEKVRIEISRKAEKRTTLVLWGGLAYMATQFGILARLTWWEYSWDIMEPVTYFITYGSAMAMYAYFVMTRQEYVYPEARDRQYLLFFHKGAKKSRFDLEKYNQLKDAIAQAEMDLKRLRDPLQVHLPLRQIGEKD
UniProt O75380, residues 29-124: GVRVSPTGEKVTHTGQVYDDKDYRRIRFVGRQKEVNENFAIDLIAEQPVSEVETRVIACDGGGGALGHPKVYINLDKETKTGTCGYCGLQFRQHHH
UniProt O95182: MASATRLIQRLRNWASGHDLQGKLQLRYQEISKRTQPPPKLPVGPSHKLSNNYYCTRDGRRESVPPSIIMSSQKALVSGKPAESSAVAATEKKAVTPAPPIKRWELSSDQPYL
UniProt O95139: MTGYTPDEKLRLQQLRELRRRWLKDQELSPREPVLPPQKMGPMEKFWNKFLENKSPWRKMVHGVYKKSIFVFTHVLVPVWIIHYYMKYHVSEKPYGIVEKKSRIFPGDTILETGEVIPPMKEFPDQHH
UniProt Q9P0J0: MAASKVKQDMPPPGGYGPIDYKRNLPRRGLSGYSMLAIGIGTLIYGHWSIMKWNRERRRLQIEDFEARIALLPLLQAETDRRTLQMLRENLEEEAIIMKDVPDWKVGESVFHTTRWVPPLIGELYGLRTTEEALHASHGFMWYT
UniProt P19404, residues 33-249: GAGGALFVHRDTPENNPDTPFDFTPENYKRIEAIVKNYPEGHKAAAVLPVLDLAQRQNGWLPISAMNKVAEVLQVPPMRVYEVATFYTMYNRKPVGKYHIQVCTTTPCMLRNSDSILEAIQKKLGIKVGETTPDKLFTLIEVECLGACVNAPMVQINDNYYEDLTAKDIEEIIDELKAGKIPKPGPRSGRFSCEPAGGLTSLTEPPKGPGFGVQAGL
UniProt O95299, residues 36-355: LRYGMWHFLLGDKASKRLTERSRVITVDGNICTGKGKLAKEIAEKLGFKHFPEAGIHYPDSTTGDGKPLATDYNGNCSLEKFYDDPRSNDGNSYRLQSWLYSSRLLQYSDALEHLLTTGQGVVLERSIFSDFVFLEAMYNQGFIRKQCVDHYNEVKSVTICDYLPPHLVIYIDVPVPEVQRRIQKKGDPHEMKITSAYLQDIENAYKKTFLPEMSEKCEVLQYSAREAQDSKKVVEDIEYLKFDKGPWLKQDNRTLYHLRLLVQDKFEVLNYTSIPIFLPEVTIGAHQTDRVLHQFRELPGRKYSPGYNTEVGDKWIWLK

Columns and labels:
MCU-mCerulean [1] = biological target: MCU-mCerulean (UniProt Q8NE86); test: FRET or BRET; FRET by flow cytometry in live HEK293T cells co-transfected with MCU-mCerulean and an mVenus-tagged construct; 100 µM cycloheximide ~2 h before analysis; donor FRET efficiency against mVenus fluorescence
[2] = biological target: Flag-tagged MCU (pore-forming subunit of the mitochondrial calcium uniporter) (UniProt Q8NE86); test: co-IP; as the FLAG co-IP in 1% digitonin, HEK293T cells treated with rotenone beforehand
[3] = biological target: Flag-tagged MCU (pore-forming subunit of the mitochondrial calcium uniporter) (UniProt Q8NE86); test: co-IP; FLAG antibody beads on cleared lysates of HEK293T cells stably expressing MCU-Flag or SDHB-Flag; 1% digitonin, 50 mM Tris, 150 mM NaCl; overnight at 4 °C; Western blot
[4] = biological target: T1, Flag-tagged succinate dehydrogenase complex subunit B (UniProt P21912); test: as above
T1 sequence: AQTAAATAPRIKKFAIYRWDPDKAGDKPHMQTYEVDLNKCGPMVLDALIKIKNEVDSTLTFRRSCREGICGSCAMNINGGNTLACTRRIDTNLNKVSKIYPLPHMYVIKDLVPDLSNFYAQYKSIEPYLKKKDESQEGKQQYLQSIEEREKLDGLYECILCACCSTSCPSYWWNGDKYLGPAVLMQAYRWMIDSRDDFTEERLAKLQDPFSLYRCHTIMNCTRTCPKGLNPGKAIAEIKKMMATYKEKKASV

MCU-mCerulean [5] = biological target: MCU-mCerulean (UniProt Q8NE86); test: FRET or BRET; acceptor photobleaching FRET by confocal imaging of transfected cells fixed in 4% paraformaldehyde

Substance	binding (MCU-mCerulean [1])	other results
NDUFS6 tagged with mVenus (from UniProt O75380 29-124)	no binding	
NDUFA7 tagged with mVenus (from UniProt O95182 1-113)	no binding	
NDUFB6 tagged with mVenus (from UniProt O95139 1-128)	no binding	
NDUFA13 (from UniProt Q9P0J0 1-144)		binding [2]: no binding (condition: cells treated with rotenone); binding [3]: binds; binding [4]: no binding
NDUFV2 tagged with mVenus (from UniProt P19404 33-249)	no binding	
NDUFA10 tagged with mVenus (from UniProt O95299 36-355)	binds	binding (MCU-mCerulean [5]): binds
